# Experimental data as given in the supplement of paper PMC3334620.
# The full ranking holds about 33,000 sequences; the median of “E-score (-0.5 to 0.5)” is about -0.012, and the highest 2% start at about 0.27. The list shows a part of the results.
# Biological target: T1, Vhr1 (UniProt P40522)
# T1 sequence: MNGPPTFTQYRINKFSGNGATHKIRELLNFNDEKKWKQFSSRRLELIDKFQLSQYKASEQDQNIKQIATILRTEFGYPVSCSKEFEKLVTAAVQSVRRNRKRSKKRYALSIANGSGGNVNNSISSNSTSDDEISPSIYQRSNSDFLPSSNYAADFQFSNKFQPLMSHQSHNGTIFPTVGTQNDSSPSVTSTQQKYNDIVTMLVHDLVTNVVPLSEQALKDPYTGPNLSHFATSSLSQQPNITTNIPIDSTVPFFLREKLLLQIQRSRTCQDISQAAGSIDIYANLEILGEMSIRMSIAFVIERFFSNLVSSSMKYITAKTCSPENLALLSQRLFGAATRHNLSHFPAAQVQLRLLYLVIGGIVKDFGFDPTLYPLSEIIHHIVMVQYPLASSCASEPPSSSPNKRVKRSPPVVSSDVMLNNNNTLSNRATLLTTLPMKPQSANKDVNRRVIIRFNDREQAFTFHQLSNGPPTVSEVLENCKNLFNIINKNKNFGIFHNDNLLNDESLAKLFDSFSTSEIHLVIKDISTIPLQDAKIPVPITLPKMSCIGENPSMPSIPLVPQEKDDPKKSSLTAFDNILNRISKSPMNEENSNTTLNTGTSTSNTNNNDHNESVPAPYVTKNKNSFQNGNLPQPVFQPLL
# Assay: PBM E-score (8-mer binding enrichment) (E-score (-0.5 to 0.5)); higher = stronger / more preferred TF binding; most listed sequences are background and not binding sites
# Conditions: protein concentration: 200 nM; construct: GST-full length
# Method in brief: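 Full-length yeast transcription factors or their DNA-binding domains, GST-tagged and expressed with PURExpress, were applied at about 100-200 nM to universal all-10-mer Agilent arrays. These arrays had been made double-stranded by primer extension on fresh or once-stripped slides. Detection used fluorescent anti-GST, normalisation used masliner, and E-scores for ungapped eight-base words pooled with reverse complements came from the Universal PBM Analysis Suite.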
row,Sequence,PBM E-score
1,AACAACAT,0.0565
2,GCGCTTAC,-0.329
3,GGACCTCA,-0.045
4,GCTTCAAA,-0.272
5,ATGAGGGC,-0.109
6,AGAACATC,-0.0202
7,AATGTGCG,0.18
8,ACAAAGGC,-0.14
9,AACGTGCC,-0.111
10,AGCTTCTG,-0.143
11,GGCACTGA,-0.0319
12,CTAACTTC,-0.253
13,CACGTGCA,-0.0875
14,CTTAGCAA,-0.0949
15,ACTGATTC,0.283
16,GAAATTCA,-0.198
17,AACCTATG,0.0205
18,AGCTTAAA,-0.0429
19,CGGTAAGC,-0.0847
20,CCGCAAGC,-0.0225
21,GTCGCGAC,0.379
22,CGAAAAGC,-0.0652
23,CCATTCGC,0.109
24,TGTCGTAA,-0.118
25,CCCGTGTC,0.0519

row,Sequence,PBM E-score
1,CAGAGGAA,0.117
2,ATTTAGTC,0.246
3,GCCAACTA,0.09
4,ACGGTGGG,0.121
5,ATCGTAAC,0.0764
6,CGGTACCG,0.0666
7,GGCTTTTA,-0.219
8,GCTGGTCC,-0.0736
9,AATATGTC,-0.0552
10,CGCGAGGA,0.0661
11,ACTTGTAA,-0.247
12,AAATAAGC,-0.363
13,CACGGTCG,-0.0864
14,TCTAGGCA,-0.208
15,CTGTCTAA,-0.0566
16,TCCAAGCA,-0.0112
17,GATTCCGC,0.216
18,CGCCGACG,-0.0192
19,ACACCCCC,-0.0905
20,GTGGGAAC,-0.0677
21,GGCGCCAC,0.0321
22,CAGCTTCC,-0.179
23,CATCGATA,0.213
24,AGGGATCG,-0.0799
25,CACCTCAG,-0.0536

row,Sequence,PBM E-score
1,CAAGGCCA,-0.108
2,CGTGAGGC,-0.0326
3,GGCGGGAA,-0.0569
4,ACGACTAT,0.195
5,CTCATCCC,0.0565
6,ACCGCCCT,-0.0373
7,CAGATTGC,-0.0393
8,TGGATACA,0.193
9,AAAGTAAG,-0.289
10,CATCGGGC,-0.00993
11,ACGACTAA,0.194
12,GCCAGCAA,-0.0258
13,GGCGGACC,0.0976
14,CCCGTTGA,0.0338
15,CTAAACAC,-0.2
16,CACCTCAA,0.0626
17,ATGACATC,0.153
18,CCCTAGGG,-0.176
19,TTCAGGAA,-0.175
20,CTTGCCAA,-0.019
21,AAAGACCA,-0.235
22,GGAACCTA,-0.0803
23,ACTGAATG,0.0153
24,CGCCTACG,0.0944
25,TGACCAAA,-0.0823

row,Sequence,PBM E-score
1,ATTAGGCG,-0.12
2,AATAATCT,0.0897
3,ATGAACGA,-0.0507
4,ATTAAACA,-0.0208
5,AATATCTA,0.0107
6,GGTGACGA,0.113
7,CAGCTCCC,-0.139
8,GAACCTCC,-0.0862
9,AGTAAAGG,0.0581
10,AGAGGTGG,-0.222
11,CACGCGAG,0.0874
12,GAGCAGAC,-0.032
13,TGACAACA,0.115
14,ACTAGGCC,-0.211
15,CCGTAAGG,-0.31
16,GTTAGATA,-0.00426
17,CACATGCC,0.0666
18,ACTCGCAT,0.19
19,CTTGGGGA,0.0162
20,CTGACCTA,0.0533
21,GGAGGGCC,-0.136
22,ACCACACA,0.0973
23,ACAGCTGC,-0.0546
24,ATGATTGA,0.344
25,ATAACCTG,-0.184

row,Sequence,PBM E-score
1,AAATTGTT,-0.12
2,CCACGCAC,0.0547
3,ATATGGTC,0.0487
4,ATCTGCCA,-0.0347
5,CTCGCTTA,-0.0254
6,CCCCGCCG,0.144
7,GAGTTGTA,-0.0334
8,CATTAACA,0.147
9,CGACTGAG,0.047
10,AGTGGAAT,0.00102
11,ATAACTTA,-0.0151
12,ACCGCTGC,-0.0871
13,CATTGTAA,0.155
14,CATCATGA,0.276
15,ACGACTCC,0.366
16,AACCGCAG,0.0303
17,CCTAACGC,-0.0631
18,CATCAGTA,0.134
19,AGCTGAAT,-0.023
20,CGTTCCTC,-0.0157
21,AACCGAGG,-0.0651
22,CACTGTTA,0.00219
23,ACTCGACC,0.0604
24,ATAGATAA,0.00589
25,CACTGTAG,0.142

row,Sequence,PBM E-score
1,CAGCACTG,0.0756
2,GGCAAGGA,-0.242
3,CCGGTAAA,-0.127
4,AAGAGAGC,-0.365
5,GATTGACA,0.0916
6,AGGGTCTG,-0.108
7,AGTCTAAT,-0.153
8,CAGACCAG,-0.0356
9,CCTGTGCA,-0.0814
10,AGACATTC,-0.115
11,CCAAAGAA,-0.123
12,AGAGCGCC,-0.134
13,AGTACCGA,-0.00877
14,GCCACAAC,0.116
15,CCACAGGC,-0.0524
16,AGCCATCG,0.15
17,GACTGATC,0.119
18,AAGCCCGC,0.0323
19,ACGAGCCA,0.225
20,GATTGACC,0.085
21,ATACCTCG,0.0872
22,CCTATCGC,-0.151
23,AAGCGGGC,-0.121
24,AAGTCGCA,0.173
25,CCATAAGC,-0.18

row,Sequence,PBM E-score
1,AGACGGCA,0.0868
2,ATGGCGCC,-0.0318
3,AATCGCGA,0.26
4,TATGTCAA,-0.0148
5,CCGATCCG,0.13
6,CAACATTA,0.0457
7,ATACCAAG,0.126
8,ACGTCGAC,0.155
9,ACCACTCT,-0.0166
10,ACTCCTAC,0.19
11,AGACTCGG,0.00302
12,CTGCCCAC,-0.116
13,GCATAAGC,-0.124
14,CCGTGGAA,0.0366
15,CCTGGCAG,0.0237
16,CCCTAACC,-0.022
17,TATGCTGA,0.0447
18,ACTGCAAA,-0.119
19,TGCGAGAA,-0.0632
20,CCTACTAA,0.0375
21,ACTTATCG,-0.0707
22,CCGGTTCC,-0.0881
